“And” between values parts separate entries of the source, which are not always exact repeats. Equal values may be shown once. Inconclusive means that the source gave no clear call. Such entries were picked first, then a sample of the others. Where the call is inconclusive, the potency comes from a doubtful curve fit. The source made the active and inactive calls. Unless noted, calls follow the shape of the dose curve; as a rule, active = well fitted cell-killing curve with a large enough effect in the repeat runs; inconclusive = weak or mixed curves, or effect the other way; inactive = no such curve, though single readings can be large or run the other way.
molecular target: Glucocorticoid receptor (Homo sapiens) (UniProt P04150); test: qHTS assay to identify small molecule antagonists of the glucocorticoid receptor (GR) signaling pathway (AID 720692; active = well fitted inhibition curve with a large enough effect in the signal ratio in the repeat runs, not every such curve was filed as active; inconclusive = weak or mixed curves, or effect the other way; inactive = no such curve, though single readings can be large or run the other way; the % refers to the signal ratio); conditions: GR-bla HeLa, beta-lactamase FRET ratio, dexamethasone-stimulated, 18 h; activity change, negative = inhibition: at 58.5 µM (top of the series) unless noted
Sequence of UniProt P04150 (P04150 whole entry, looked up): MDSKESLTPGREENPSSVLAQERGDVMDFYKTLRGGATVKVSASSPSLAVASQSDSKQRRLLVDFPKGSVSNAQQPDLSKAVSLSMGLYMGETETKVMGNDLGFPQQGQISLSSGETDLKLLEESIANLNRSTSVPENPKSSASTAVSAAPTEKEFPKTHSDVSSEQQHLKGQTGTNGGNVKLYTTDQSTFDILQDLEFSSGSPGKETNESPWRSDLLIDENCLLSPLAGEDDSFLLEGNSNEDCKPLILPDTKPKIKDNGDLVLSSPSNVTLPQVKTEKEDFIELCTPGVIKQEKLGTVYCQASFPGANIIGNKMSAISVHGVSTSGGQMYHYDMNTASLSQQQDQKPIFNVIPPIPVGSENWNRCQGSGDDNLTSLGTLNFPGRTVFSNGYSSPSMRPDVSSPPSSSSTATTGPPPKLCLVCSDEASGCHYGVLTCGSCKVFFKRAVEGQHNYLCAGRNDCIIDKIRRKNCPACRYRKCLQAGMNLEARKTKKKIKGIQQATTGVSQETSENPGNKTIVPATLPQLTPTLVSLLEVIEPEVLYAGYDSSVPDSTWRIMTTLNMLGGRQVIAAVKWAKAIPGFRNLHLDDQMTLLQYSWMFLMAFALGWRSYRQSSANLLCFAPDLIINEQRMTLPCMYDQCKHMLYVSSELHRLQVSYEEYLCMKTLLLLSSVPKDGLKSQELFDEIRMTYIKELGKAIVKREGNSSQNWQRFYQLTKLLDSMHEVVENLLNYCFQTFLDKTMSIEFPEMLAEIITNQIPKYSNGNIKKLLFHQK
How it was run: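 Inhibition of dexamethasone-driven (5 nM final) beta-lactamase expression was measured in GRE-reporter HeLa cells over 18 h at 37C. Fluorescence was read after 2 h with the B/G FRET substrate at room temperature.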
% is scaled to controls: 0 for no effect and ±100 for the full control effect; potency is read from the fitted curve at half-maximal effect; tags tell the direction and shape of the fitted curve or compound fluorescence and quenching.

Q: Which activity change, negative = inhibition does the source give for `Brc1cc(-c2ccc(Br)c(Br)c2Br)cc(Br)c1Br` here?
A: The activity change, negative = inhibition was inconclusive: -24.3%.

Q: For `O=[N+]([O-])c1ccc2ncccc2c1`, which activity change, negative = inhibition is on record?
A: The activity change, negative = inhibition was inconclusive: 19.8%.

Q: For `C=Cc1cccc(C)c1`, which activity change, negative = inhibition is on record?
A: The activity change, negative = inhibition was inconclusive: 12.4%.

Q: With `CC(C)n1c(/C=C/[C@@H](O)C[C@@H](O)CC(=O)O)c(-c2ccc(F)cc2)c2ccccc21` as the compound, how does the Potency read?
A: The Potency was inconclusive: 268 nM [rising, full curve, poor fit] and inconclusive: 3.47 µM [rising, full curve, poor fit].

Q: With `CC(N)C12CC3CC(CC(C3)C1)C2` (centres undefined) as the compound, how does the activity change, negative = inhibition read?
A: The activity change, negative = inhibition was inconclusive: -2.47%.

Q: With `CC/C=C\C/C=C\C/C=C\CCCCCCCC(=O)OCC` as the compound, how does the Potency read?
A: The Potency was active: 50.1 µM.

Q: With `Cn1c(=O)c2c(ncn2C)n(C)c1=O` as the compound, how does the activity change, negative = inhibition read?
A: The activity change, negative = inhibition was inconclusive: -19% [at 78.9 µM].

Q: With `NC(=O)C(c1ccccc1)(c1ccccc1)[C@@H]1CCN(CCc2ccc3c(c2)CCO3)C1` as the compound, how does the Potency read?
A: The Potency was “inactive”.

Q: For `CCOC(=O)Nc1ccc(NCc2ccc(F)cc2)nc1N`, which activity change, negative = inhibition is on record?
A: The activity change, negative = inhibition was inconclusive: 2.41%.

Q: For `Cc1cc(C(C#N)c2ccc(Cl)cc2)c(Cl)cc1NC(=O)c1cc(I)cc(I)c1O` (centres undefined), which activity change, negative = inhibition is on record?
A: The activity change, negative = inhibition was inconclusive: -59.7%.

Q: Which Potency does the source give for `CCCNCCC` here?
A: The Potency was “inactive”.

Q: Which Potency does the source give for `CC1(C)[C@@H](O)CC[C@]2(C)[C@H]3C(=O)C=C4[C@@H]5C[C@@](C)(C(=O)O)CC[C@]5(C)CC[C@@]4(C)[C@]3(C)CC[C@@H]12` here?
A: The Potency was active: 23.9 µM and active: 21.3 µM and active: 43.2 µM.

Q: Which Potency does the source give for `Cc1cc2nc3ccc(=[N+](C)C)cc-3sc2cc1N` here?
A: The Potency was inconclusive: 12 µM [falling, partial curve, poor fit].

Q: For `CC1(C)C(C=C(Cl)Cl)C1C(=O)OCc1cccc(Oc2ccccc2)c1` (centres undefined), which activity change, negative = inhibition is on record?
A: Its activity change, negative = inhibition is inconclusive: -42.1%.

Q: Which Potency does the source give for `COc1ccc(-n2nc(C(F)F)cc2-c2ccc(S(C)=O)cc2)cc1` (centres undefined) here?
A: Its Potency is “inactive”.

tested on: not listed separately; test: qHTS assay to identify small molecule antagonists of the glucocorticoid receptor (GR) signaling pathway - cell viability counter screen (AID 720693); conditions: GR-bla HeLa viability, CellTiter-Glo luminescence, 18 h, with 5 nM dexamethasone present; viability change, negative = cytotoxic: at 58.5 µM (top of the series); also: nearly all actives have a fitted effect of over 55% in size

Q: Which Potency does the source give for `Cc1cscn1` here?
A: The Potency was “inactive”.

Q: With `Cc1cc(C(C#N)c2ccc(Cl)cc2)c(Cl)cc1NC(=O)c1cc(I)cc(I)c1O` (centres undefined) as the compound, how does the Potency read?
A: The Potency was inconclusive: 8.49 µM [cytotoxic, partial curve].

Q: Which Potency does the source give for `Cc1cc2nc3ccc(=[N+](C)C)cc-3sc2cc1N` here?
A: Its Potency is inconclusive: 23.9 µM [cytotoxic, single point].

Q: For `COC(OC)OC`, which Potency is on record?
A: The Potency was “inactive”.
